Source: PubChem BioAssay AID1460 (National Center for Advancing Translational Sciences (NCATS), 2008)
Values joined by “and” are separate entries in the source; they are usually repeats but may differ in a detail not shown here. Identical values can stand only once. Screen size: about 270,000 compounds; about 5,800 (2.1%) were called active. The inconclusive results got no clear call from the source; some entries with a clear call stand among them for comparison. Calls follow the shape of the dose curve; as a rule, active = well fitted inhibition curve with a large enough effect; inconclusive = small, poorly fitted or top-dose-only effect; inactive = flat fitted curve, though single readings scatter. Where the call is inconclusive, the potency comes from a doubtful curve fit.

Target: Microtubule-associated protein tau (Homo sapiens) (UniProt P10636)
Sequence of UniProt P10636 (P10636 whole entry, looked up): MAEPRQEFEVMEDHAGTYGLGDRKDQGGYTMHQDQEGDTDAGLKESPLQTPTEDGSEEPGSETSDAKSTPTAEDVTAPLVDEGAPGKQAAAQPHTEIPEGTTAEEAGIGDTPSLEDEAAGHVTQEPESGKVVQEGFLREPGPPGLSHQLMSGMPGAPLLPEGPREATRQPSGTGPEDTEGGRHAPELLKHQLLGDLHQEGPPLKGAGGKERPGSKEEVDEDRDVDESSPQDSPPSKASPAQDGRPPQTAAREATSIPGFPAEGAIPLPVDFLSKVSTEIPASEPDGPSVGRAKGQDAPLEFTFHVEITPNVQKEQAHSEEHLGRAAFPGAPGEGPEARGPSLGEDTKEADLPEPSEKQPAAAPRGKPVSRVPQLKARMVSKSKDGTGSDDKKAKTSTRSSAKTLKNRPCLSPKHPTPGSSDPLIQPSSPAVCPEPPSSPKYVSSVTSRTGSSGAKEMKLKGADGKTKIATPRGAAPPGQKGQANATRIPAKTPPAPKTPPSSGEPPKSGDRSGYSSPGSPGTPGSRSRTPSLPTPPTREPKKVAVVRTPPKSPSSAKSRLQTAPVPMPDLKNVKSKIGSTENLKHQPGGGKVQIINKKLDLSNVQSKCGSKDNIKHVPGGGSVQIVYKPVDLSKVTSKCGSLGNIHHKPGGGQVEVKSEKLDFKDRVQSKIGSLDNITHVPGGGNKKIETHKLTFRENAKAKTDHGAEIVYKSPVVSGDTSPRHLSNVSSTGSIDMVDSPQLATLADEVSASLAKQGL
Experiment: qHTS for Inhibitors of Tau Fibril Formation, Thioflavin T Binding; also: nearly all actives have a fitted effect of over 55% in size
Conditions: recombinant tau K18 P301L (four-repeat tau fragment), heparin-induced fibrillization, ThT fluorescence; series mostly up to 57.4 µM
Procedure, shortened: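 In this qHTS, human K18 P301L tau is incubated with compound and heparin for 6 hr at 37 C, and Thioflavin T fluorescence then reports fibril load.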
% is scaled to controls: 0 for no effect and ±100 for the full control effect; potency is read from the fitted curve at half-maximal effect; tags tell the direction and shape of the fitted curve.

| Structure (SMILES) | Potency | activity, negative = inhibition |
| --- | --- | --- |
| CCOC(=O)c1ccc(Oc2nc(SC)nc(N(C)C)n2)cc1 | inconclusive: 28.2 µM [inhibitor, single point] |  |
| CC(C)(C)NC(=O)c1ccc2nc(CCc3ccccc3)oc2c1 | inconclusive: 39.8 µM [inhibitor, single point] |  |
| C=CCN1c2ccccc2[C@]23C[C@@H](C(=O)OC)N(S(=O)(=O)c4c(C)noc4C)C2=NC(C(=O)OC)=C(C(=O)OC)[C@H]13 |  | inactive: -5.79% [at 11.5 µM] |
| O=C(Nc1ccc(F)cc1F)N1CCN(c2ccc(Cl)c(Cl)c2)CC1 | inconclusive: 8.91 µM [inhibitor, partial curve] |  |
| Cc1sc2nc(CSc3n[nH]c(N)n3)[nH]c(=O)c2c1C | inconclusive: 11.2 µM [inhibitor, partial curve] |  |
| Cc1ccc(C)c(N2CCN(S(=O)(=O)c3ccc4c(c3)OCCO4)CC2)c1 | inconclusive: 0.708 µM [activator, full curve, poor fit] |  |
| COc1cc(/C=C/[N+](=O)[O-])ccc1OCc1cccc(C(=O)O)c1 | inconclusive: 11.2 µM [inhibitor, partial curve] |  |
| Cn1c(N)c(C#N)c2c(c1=S)COC(C)(C)C2 | inactive |  |
| S=C1SCN(Cc2ccco2)CN1Cc1ccco1 | inconclusive: 44.7 µM [inhibitor, single point] |  |
| COc1cc(Nc2ncc3c(n2)CCN(Cc2cc(F)cc(F)c2)C3)cc(OC)c1 | inactive |  |
| COc1ccc(NC2c3ccccc3C(=O)N2Cc2ccccc2Cl)cc1OC (stereo not drawn) | inconclusive: 1.26 µM [inhibitor, full curve, poor fit] |  |
| CC1(C)CC(=O)C(C2C3=C(CC(C)(C)CC3=O)OC3=C2C(=O)CC(C)(C)C3)=C(O)C1 | inactive |  |
| Cc1ccc(C2C=C(c3ccc(Cl)cc3)Nc3nc(NC(=O)c4ccco4)nn32)cc1 (stereo not drawn) | inconclusive: 1 µM [inhibitor, full curve, poor fit] |  |
| COc1ccc(/C=C2\SC(=S)N(CCCC(=O)NNC(=O)c3ccccc3O)C2=O)cc1 | inconclusive: 1.12 µM [inhibitor, full curve] |  |
| CCOc1ccc(C(c2c(O)cc(C)n(Cc3ccco3)c2=O)N2CCN(c3ccccc3)CC2)cc1 (stereo not drawn) | inconclusive: 10 µM [inhibitor, partial curve] |  |
| NC(=O)c1ccc(NC(=O)CCCc2nc(-c3ccccc3Cl)no2)cc1 | inconclusive: 22.4 µM [inhibitor, partial curve] |  |
| CCCCCc1nn2cc(-c3ccccc3)nc2s1 | inconclusive: 3.55 µM [inhibitor, full curve] |  |
| Cn1nnnc1SCCCNCc1cc(Cl)ccc1OCc1ccccc1F | inactive |  |
| O=C(NC1CCCCC1)C1c2ccccc2C(=O)N1Cc1ccco1 (stereo not drawn) | inconclusive: 35.5 µM [inhibitor, partial curve] |  |
| NC(=NCCc1c[nH]c2ccccc12)NS(=O)(=O)c1ccc2ccccc2c1 | inactive |  |
| C[C@H](CCC(=O)O)C1CC[C@H]2C3CC[C@@H]4C[C@H](O)CC[C@]4(C)C3C[C@H](O)[C@]12C (stereo partly drawn) | inactive |  |
| CCCNC(=O)c1c(N)n(-c2cc(OC)cc(OC)c2)c2nc3ccccc3nc12 | inconclusive: 11.2 µM [inhibitor, partial curve] |  |
| C1=C(CCNc2ncnc3c2[nH]c2ccccc23)CCCC1 | inconclusive: 12.6 µM [inhibitor, partial curve] |  |

| Structure (SMILES) | Potency | activity, negative = inhibition |
| --- | --- | --- |
| O=C(CSC1=NCCN1)C1COc2ccccc2O1 (stereo not drawn) | inconclusive: 28.2 µM [inhibitor, partial curve] |  |
| CN(C)c1ccc(/C=C2\SC(=S)N(Nc3ncc(C(F)(F)F)cc3Cl)C2=O)cc1 | inconclusive: 8.91 µM [inhibitor, partial curve] |  |
| Cc1nn(-c2nnc(NCc3ccccc3)nn2)c(C)c1Br | active: 14.1 µM |  |
| CCN(CC)CCSc1nc2ccccc2c(=S)n1-c1ccccc1 | inconclusive: 35.5 µM [inhibitor, single point] |  |
| COc1ccccc1C(=O)NNC(=S)NC(=O)c1sc2ccccc2c1Cl | active: 7.08 µM |  |
| CCOC(=O)CSc1nnc(SCCN2C(=O)c3ccccc3C2=O)s1 | inconclusive: 44.7 µM [inhibitor, single point] |  |
| COc1ccc(NC2CC(=O)N(c3ccccc3)C2=O)cc1 (stereo not drawn) | inconclusive: 20 µM [inhibitor, partial curve] |  |
| CCOC(=O)OCC1OC(C#Cc2ccc(C(C)(C)C)cc2)C=CC1OC(=O)OCC (stereo not drawn) |  | inactive: -7.5% [at 11.5 µM] |
| C/C(=N\NC(=O)CN1CCN(Cc2ccc(C)cc2)CC1)c1ccncc1 | inactive |  |
| CCOc1ccc(-c2csc(-c3c(N)c(C(=O)c4ccc5c(c4)OCO5)n4ccccc34)n2)cc1 | inconclusive: 5.01 µM [inhibitor, partial curve] |  |
| CCOc1ccccc1NC(=O)c1nn(C)c2c1CSc1ccccc1-2 | inconclusive: 20 µM [inhibitor, single point] |  |
| CCN(CC)S(=O)(=O)c1ccc(N2CCOCC2)c(NS(=O)(=O)c2ccc(C)cc2)c1 | inactive |  |
| O=C(Nc1ccc(-c2nc3ccccc3[nH]2)cc1)c1ccco1 | inconclusive: 15.8 µM [activator, partial curve] |  |
| CC(=O)c1ccc(N2CCN(c3ncnc4c3cnn4C)CC2)cc1 | inconclusive: 1.12 µM [inhibitor, full curve] |  |
| CC1(C)CC(=O)C(C=Nc2ccccc2Sc2ccccc2)=C(O)C1 | inconclusive: 39.8 µM [inhibitor, partial curve] |  |
| CC#CCN1c2ccccc2[C@]23C[C@@H](C(=O)OC)N(C(=O)c4cccs4)C2=NC(C(=O)OC)=C(C(=O)OC)[C@H]13 |  | inactive: -5.02% [at 11.5 µM] |
| COc1ccc(C(=O)OCC(=O)c2ccc(C3CCCCC3)cc2)cc1 | inactive |  |
| COc1ccc([N+](=O)[O-])c(S(=O)(=O)c2ccccc2)n1 | inconclusive: 6.31 µM [inhibitor, full curve] |  |
| Cc1ccc(/C(N)=N/OC(=O)/C=C/c2ccccc2)cc1 | inconclusive: 14.1 µM [inhibitor, partial curve] |  |
| C=CCn1c(Sc2ncc([N+](=O)[O-])s2)n[nH]c1=O | inconclusive: 7.08 µM [inhibitor, partial curve] |  |
| C=CCCC(=O)Nc1nc(C)c(-c2csc(Nc3cc(Cl)ccc3OC)n2)s1 | inconclusive: 10 µM [inhibitor, partial curve] |  |
| C=CCn1c(N)c(C(=O)Nc2cccc(C)c2)c2nc3ccccc3nc21 | inconclusive: 15.8 µM [inhibitor, partial curve] |  |
| Cc1cc(NS(=O)(=O)c2ccc(Nc3nc(-c4ccc(O)cc4)cs3)cc2)no1 | inactive |  |

| Structure (SMILES) | Potency | activity, negative = inhibition |
| --- | --- | --- |
| O=C(/C=C\Nc1ccccn1)c1ccccc1 | inactive |  |
| CC(=O)N1CC[C@@H]2CC(=O)C[C@@H](C)[C@@H]21 | inactive |  |
| Nc1nonc1C(=O)N/N=C/c1ccc(-c2ccc(Cl)c(C(=O)O)c2)o1 | inconclusive: 4.47 µM [inhibitor, partial curve] |  |
| CC(C)c1ccccc1OCCNC(=S)NC(=O)c1cccnc1 | inconclusive: 44.7 µM [inhibitor, single point] |  |
| COc1cccc(CC(=O)N2CCN(c3ccccc3[N+](=O)[O-])CC2)c1 | inconclusive: 1.26 µM [inhibitor, partial curve] |  |
| Cc1ccc(NC(=O)c2cc(-c3ccco3)nc3ccccc23)cc1S(=O)(=O)N1CCOCC1 | inactive |  |
| CCOc1cc(/C=N/Nc2nc(-c3cccc(S(=O)(=O)N4CCCC4)c3)cs2)ccc1O | inconclusive: 6.31 µM [inhibitor, partial curve] |  |
| CCC(Sc1nc(C)cc(C)n1)C(=O)NC1=NN=C(c2ccc(C)cc2)CS1 (stereo not drawn) | active: 31.6 µM |  |
| COc1ccc(OC)c(NC(=O)C2C3CCC(C3=C(C)C)C2C(=O)O)c1 (stereo not drawn) | inactive |  |
| O=C(c1ccc(N2C(=O)C3CC=C(Cl)CC3C2=O)cc1)N1CCCCC1 (stereo not drawn) | inactive |  |
| COc1ccc(-c2csc(NC3OC(=O)c4c3ccc(OC)c4OC)n2)cc1OC (stereo not drawn) | inconclusive: 11.2 µM [inhibitor, partial curve] |  |
| Cc1ccc(C)c(OCCCC(=O)Nc2ccccc2C(N)=O)c1 | inactive |  |
| COc1cc(NS(=O)(=O)c2ccc(NC(=S)NC(=O)c3sc4ccccc4c3Cl)cc2)ncn1 | inconclusive: 7.08 µM [inhibitor, partial curve] |  |
| COc1ccc(/C=C(\C#N)C(=O)NC2CCS(=O)(=O)C2)cc1OC (stereo not drawn) | inactive |  |
| O=C(N/N=C/c1ccncc1)c1ccc(NC(=O)c2ccc(Cl)cc2)cc1 | inconclusive: 0.199 µM [inhibitor, full curve, poor fit] |  |
| O=C(Nc1nnc(SCc2ccc(Cl)cc2Cl)s1)C1COc2ccccc2O1 (stereo not drawn) | inconclusive: 20 µM [inhibitor, partial curve] |  |
| COc1cc2c(cc1C(F)(F)F)N(C(=O)Nc1cc(F)cc(-c3cccnc3)c1)CC2 | inconclusive: 5.01 µM [inhibitor, partial curve] and inconclusive: 3.16 µM [inhibitor, full curve] |  |
| CCCSC1=C(C#N)C(c2ccc(Cl)cc2Cl)CC(=O)N1 (stereo not drawn) | inactive |  |
| CCCCC/C=C\C[C@@H](O)/C=C/C=C/C=C\[C@@H](O)CCCC(=O)O | inactive |  |
| Cc1cc(C)nc(NC(=O)c2ccc([N+](=O)[O-])o2)n1 | inactive |  |
| C=CCn1c(SCc2nc3scc(-c4ccccc4)c3c(=O)[nH]2)nnc1-c1ccccc1F | inconclusive: 12.6 µM [inhibitor, partial curve, poor fit] |  |
| N#CCCn1c(SCC(=O)Nc2ccc(N3CCOCC3)cc2)nc2ccccc21 | inconclusive: 12.6 µM [inhibitor, partial curve] |  |
